According to PubChem BioAssay (NCATS):
“And” between values parts separate entries of the source, which are not always exact repeats. Identical values can stand only once. Inconclusive means that the source gave no clear call. Such entries were picked first, then a sample of the others. Potencies of inconclusive entries are doubtful fits and often do not repeat. The source made the active and inactive calls. Calls follow the shape of the dose curve; as a rule, active = well fitted cell-killing curve with a large enough effect; inconclusive = small, poorly fitted or top-dose-only effect, or effect the other way; inactive = no such curve, though single readings can be large or run the other way.

Experiment: Viability qHTS for spleen associated tyrosine kinase inhibitor (SYKi) naive MV4-11 cells (AID 1963823); also: nearly all actives have a fitted effect of over 40% in size
Settings: MV4-11 AML viability, CellTiter-Glo luminescence, 72 h; viability (% of control): at 45 µM (top of the series)
How it was run: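 qHTS, SYK inhibitor-naive MV4-11; 500 cells/well; 72 hr compound exposure, 37 C; CellTiter-Glo added, 10 min RT; luminescence read.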
Potency is read from the fitted curve at half-maximal effect; tags tell the direction and shape of the fitted curve.

| Compound | viability (% of control) | Potency |
| --- | --- | --- |
| O=C(O)Cn1cnnn1 | inactive: 88% |  |
| O=C(CCCl)NCc1ccccc1 |  | inconclusive: 0.841 µM [rising, partial curve, poor fit] |
| COc1ccc2c(c1O[C@H]1CCNC1)CCC2 |  | inconclusive: 10.3 µM [cytotoxic, partial curve, poor fit] |
| CCCCNc1nc(N)c2[nH]c(=O)n(Cc3ccc(OCCN(C)C)nc3)c2n1 |  | inconclusive: 14.6 µM [cytotoxic, partial curve] |
| CN(C)CCN(Cc1ccc(-c2ccc(CNCCc3ccccc3)cc2)cc1)C(=O)CCC1CCCC1 |  | active: 1.03 µM |
| Nc1ncnc2c1ncn2[C@H]1O[C@H](CO)[C@@H](O)[C@@H]1O |  | inconclusive: 0.0562 µM [rising, full curve] |
| Clc1cccc(C(c2ccc3nc[nH]c3c2)n2ccnc2)c1 (stereo not drawn) |  | inconclusive: 15 µM [cytotoxic, partial curve] and inconclusive: 14.8 µM [cytotoxic, partial curve] |
| CC(=O)O[C@@H]1c2c(C)coc2C(=O)[C@@]23O[C@@H]2CC[C@H](C)[C@@]13C |  | inconclusive: 23.1 µM [cytotoxic, single point] |
| COc1cc(C2Oc3c(OC)cc(CCCO)cc3C2CO)ccc1O (stereo not drawn) | inactive: 71.4% |  |
| O=C1OC(c2ccc(O)cc2)C(O)=C1Cc1ccccc1 (stereo not drawn) |  | inconclusive: 23.1 µM [cytotoxic, single point] |
| CN(C)[C@@H]1C(=O)C(C(=O)NCN2CCCC2)=C(O)[C@@]2(O)C(=O)C3=C(O)c4c(O)cccc4[C@@](C)(O)C3C[C@@H]12 (stereo partly drawn) | inactive: 86.1% |  |
| CCc1cc2c(cc1CC)CC(NCC(O)c1ccc(O)c3[nH]c(=O)ccc13)C2 (stereo not drawn) |  | inconclusive: 20.6 µM [cytotoxic, partial curve] |
| O=C(NCc1ccccn1)Nc1nnc(-c2ccco2)o1 | inactive: 79.9% |  |
| Cc1nc2cccc(N)c2c(=O)n1C1CCC(=O)NC1=O (stereo not drawn) |  | active: 0.209 µM |
| CC1CCC2C(C(=O)O)=CC3CC(C)(C)CC132 (stereo not drawn) |  | inconclusive: 18.4 µM [cytotoxic, partial curve] |
| CC(C)CC(=O)OC[C@H]1O[C@@](COC(=O)CC(C)C)(O[C@H]2O[C@H](CO)[C@@H](O)[C@H](O)[C@H]2O)[C@@H](OC(=O)CC(C)C)[C@@H]1OC(=O)CC(C)C |  | inconclusive: 9.68 µM [cytotoxic, single point] |
| NS(=O)(=O)c1ccc(NC(=O)Nc2ccc(F)cc2)cc1 |  | inconclusive: 29.1 µM [cytotoxic, single point] |
| CCN(CCNC(=O)Nc1ccccc1Br)c1cccc(C)c1 |  | inconclusive: 25.9 µM [cytotoxic, single point] |
| CC(=O)N[C@H]1[C@H](O[C@H]2CC[C@]3(C)C4CC=C5[C@@H]6CC(C)(C)CC[C@]6(C(=O)O)[C@H](O)C[C@@]5(C)[C@]4(C)CC[C@H]3C2(C)C)O[C@H](CO)[C@@H](O)[C@@H]1O (stereo partly drawn) |  | inconclusive: 4.85 µM [cytotoxic, single point] |
| CCN(CC)CCNC(=O)c1ccc(N)cc1 |  | inactive |
| O=C1NC(Nc2ccccc2)=N/C1=C\c1ccc2c(c1)OCO2 |  | inconclusive: 11.6 µM [cytotoxic, partial curve] |
| CC1=CC[C@@]2(C)CC[C@@](O)(C(C)C)[C@@H]2[C@@H](O)C1 |  | inconclusive: 8.2 µM [cytotoxic, single point] |
| O=C(/C=C/c1ccc(O)cc1)OCC1=CC2OC(=O)C3=CO[C@@H](O[C@@H]4O[C@H](CO)[C@@H](O)[C@H](O)[C@H]4O)[C@H]1[C@@H]32 (stereo partly drawn) |  | inconclusive: 11.2 µM [cytotoxic, single point] |
| C[C@H]1[C@H](C)CC[C@]2(C(=O)O)CC[C@]3(C)C(=CCC4[C@@]5(C)C[C@@H](O)[C@H](O)C(C)(C)C5CC[C@]43C)[C@H]12 (stereo partly drawn) | inactive: 65.3% [at 17.3 µM] |  |
| CC(=O)OC1C(O)CC2(C)C(CCC(C)C23Cc2c(O)cc(CO)c(C=O)c2O3)C1(C)C (stereo not drawn) |  | inconclusive: 11.2 µM [cytotoxic, single point] |
| COC(=O)C1(C)CCC2(C(=O)O)CCC3(C)C(=CCC4C5(C)CC(O)C(OC6OCC(O)C(O)C6O)C(C)(CO)C5CCC43C)C2C1 (stereo not drawn) |  | inconclusive: 0.0027 µM [rising, full curve] |
| O=C(O)Cc1cccc2ccccc12 |  | inconclusive: 17.2 µM [cytotoxic, partial curve, poor fit] and inactive |
| CC1(C)CC[C@]2(C(=O)O)CC[C@]3(C)C(=CCC4[C@@]5(C)CCC(O[C@@H]6OC[C@H](O)[C@H](O)[C@H]6O[C@@H]6O[C@H](CO)[C@@H](O)[C@H](O)[C@H]6O)[C@@](C)(CO)C5CC[C@]43C)[C@@H]2C1 (stereo partly drawn) |  | inconclusive: 4.85 µM [cytotoxic, single point] |
